Data taken from a collection of fitness landscapes (doi:10.1016/j.celrep.2020.107928).
In all, about 81,000 sequences were measured (“one-hybrid fitness for binding parS DNA”: median about -0.17, highest 2% from about 0.51 on). This is one part of the list.

B1: Caulobacter ParB omega fusion; a variant is named by its letters at X, in order, B8GW30 (parent)
chain: MESVVVGEPGMSEGRRGLGRGLSALLGEVDAAPAQAPGEQLGGSREAPIEILQRNPDQPRRTFREEDLEDLSNSIREKGVLQPILVRPSPDTAGEYQIVAGERAWRAAQRAGLKTVPIMVRELDDLAVLEIGIIENVQRADLNVLEEALSYKVLMEKFERTQENIAQTIGKSXSHVANXMRLLXLPDEVQSYLVSGELTAXHARAIAAAADPVALAKQIIEGGLSVRETEALARKAPNLSAGKSKGGRPPRVKDTDTQALESDLSSVLGLDVSIDHRGSTGTLTITYATLEQLDDLCNRLTRGI

Variants of: B1
Assay: one-hybrid fitness for binding parS DNA (scaled: cognate 1, non-cognate 0); higher = stronger binding
Settings: with parS DNA site
Method in brief: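 Fitness is the rescaled log change in variant-to-wild-type read ratio, measured by Illumina sequencing of plasmids before and after bacterial one-hybrid selection. The scale puts cognate at 1 and non-cognate at 0. Selection of Caulobacter ParB libraries, four specificity codons randomised, took place in E. coli USO with a HIS3 reporter, site 19 bp from the promoter, over 48 hours at 37°C on M9-minus-histidine with 0.1 mM IPTG and 5 mM 3-AT.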

Variant	one-hybrid fitness for binding parS DNA
SEQM	≤ 0.2
RTES	0.985
IQSK	≤ 0.2
WKPQ	≤ 0.2
HNIC	≤ 0.2
SNGR	≤ 0.2
ISKY	≤ 0.2
VMFS	≤ 0.2
LPPK	≤ 0.2
IYYG	≤ 0.2
FPPF	≤ 0.2
WRMT	≤ 0.2
HQHG	≤ 0.2
SCKD	≤ 0.2
CFYL	≤ 0.2
GAHT	≤ 0.2
THYN	≤ 0.2
PRAR	≤ 0.2
YEFT	≤ 0.2
DNQR	≤ 0.2
LQGS	≤ 0.2
RQCW	0.223
YYCT	≤ 0.2
DYVI	≤ 0.2
AGRM	≤ 0.2
CFIG	≤ 0.2

Variant	one-hybrid fitness for binding parS DNA
DGII	≤ 0.2
LWNN	≤ 0.2
GPAM	≤ 0.2
HGKG	≤ 0.2
DVNR	≤ 0.2
PAGR	≤ 0.2
PGLW	≤ 0.2
QMKW	≤ 0.2
HAAR	≤ 0.2
KFSS	≤ 0.2
FKLT	≤ 0.2
YQVS	≤ 0.2
WWKG	≤ 0.2
PTFT	≤ 0.2
NYLS	≤ 0.2
HECG	≤ 0.2
SETS	≤ 0.2
PNGV	≤ 0.2
QYNY	≤ 0.2
PDRQ	≤ 0.2
PRYL	≤ 0.2
QDSV	≤ 0.2
SCPY	≤ 0.2
EQAG	≤ 0.2
SPGT	≤ 0.2
PAHY	≤ 0.2

Variant	one-hybrid fitness for binding parS DNA
MVHI	≤ 0.2
QWPY	≤ 0.2
RNAV	≤ 0.2
QTDR	≤ 0.2
HNLG	≤ 0.2
LLAV	≤ 0.2
RVRD	≤ 0.2
SREG	≤ 0.2
MCYS	≤ 0.2
QTWS	≤ 0.2
PDEC	≤ 0.2
RTQY	0.474
QLWP	≤ 0.2
TECG	≤ 0.2
RFKT	0.902
HAEA	≤ 0.2
QPNL	≤ 0.2
IRCR	≤ 0.2
PMVR	≤ 0.2
NGTT	≤ 0.2
IYEY	0.341
SYCG	≤ 0.2
IVVD	≤ 0.2
VFDS	≤ 0.2
QSRQ	≤ 0.2
RLIR	≤ 0.2

Variant	one-hybrid fitness for binding parS DNA
SHTQ	≤ 0.2
VAHG	≤ 0.2
GMGT	≤ 0.2
RANL	≤ 0.2
NQVR	≤ 0.2
QLDM	≤ 0.2
RMNY	0.529
EKSR	≤ 0.2
HKHC	≤ 0.2
VAEL	≤ 0.2
YDNS	≤ 0.2
SDRP	≤ 0.2
CAGK	≤ 0.2
ASPC	≤ 0.2
TNSD	≤ 0.2
GRMV	≤ 0.2
KIVG	≤ 0.2
VCRA	≤ 0.2
RWWE	≤ 0.2
TELM	≤ 0.2
RITM	0.319
QMTD	≤ 0.2
CEYS	≤ 0.2
NVQS	≤ 0.2
PFFA	≤ 0.2
TGAV	≤ 0.2

Variant	one-hybrid fitness for binding parS DNA
ESML	≤ 0.2
WHCR	≤ 0.2
SGTY	≤ 0.2
GHAH	≤ 0.2
VQNG	≤ 0.2
LAIS	≤ 0.2
RPTC	≤ 0.2
PLVR	≤ 0.2
TIHG	≤ 0.2
APVD	≤ 0.2
QLHT	≤ 0.2
TTIY	≤ 0.2
NKKR	≤ 0.2
AECI	≤ 0.2
VAFS	≤ 0.2
GTEC	≤ 0.2
NMGQ	≤ 0.2
PWNI	≤ 0.2
RSLA	0.591
HTGQ	≤ 0.2
ITRT	≤ 0.2
TTCL	≤ 0.2
WATL	≤ 0.2
VMST	≤ 0.2
ETPA	≤ 0.2
PVPF	≤ 0.2

Variant	one-hybrid fitness for binding parS DNA
VNET	≤ 0.2
QNNA	≤ 0.2
LNHT	≤ 0.2
SKNM	≤ 0.2
TFLY	0.258
RAEE	≤ 0.2
RNML	≤ 0.2
QCSY	≤ 0.2
PSWH	≤ 0.2
GVLL	≤ 0.2
CNHR	≤ 0.2
PQDF	≤ 0.2
SHPR	≤ 0.2
PEIT	≤ 0.2
GSMT	≤ 0.2
CAGL	≤ 0.2
IMTI	≤ 0.2
PFNR	≤ 0.2
TKVT	≤ 0.2
YFLI	≤ 0.2
MTTV	≤ 0.2
RRCI	≤ 0.2
AEFV	≤ 0.2
